Several values for one entry are separate records, joined by “and”; a condition that tells them apart may be missing. Equal values may be shown once. Among all 390,000 compounds or so, about 4,000 (1%) were called active. The shares of active, inactive and inconclusive entries below differ from those in the screen. The call rests on the fitted dose curve; in most records, active means well fitted inhibition curve with a large enough effect; inconclusive means small, poorly fitted or top-dose-only effect; inactive means no such curve, though single readings can be large or run the other way. A potency beside an inconclusive call is a rough fit, not a confirmed value.
Target: Thioredoxin reductase 1, cytoplasmic (Rattus norvegicus) (UniProt O89049)
UniProt O89049, sequence (O89049 whole entry, looked up): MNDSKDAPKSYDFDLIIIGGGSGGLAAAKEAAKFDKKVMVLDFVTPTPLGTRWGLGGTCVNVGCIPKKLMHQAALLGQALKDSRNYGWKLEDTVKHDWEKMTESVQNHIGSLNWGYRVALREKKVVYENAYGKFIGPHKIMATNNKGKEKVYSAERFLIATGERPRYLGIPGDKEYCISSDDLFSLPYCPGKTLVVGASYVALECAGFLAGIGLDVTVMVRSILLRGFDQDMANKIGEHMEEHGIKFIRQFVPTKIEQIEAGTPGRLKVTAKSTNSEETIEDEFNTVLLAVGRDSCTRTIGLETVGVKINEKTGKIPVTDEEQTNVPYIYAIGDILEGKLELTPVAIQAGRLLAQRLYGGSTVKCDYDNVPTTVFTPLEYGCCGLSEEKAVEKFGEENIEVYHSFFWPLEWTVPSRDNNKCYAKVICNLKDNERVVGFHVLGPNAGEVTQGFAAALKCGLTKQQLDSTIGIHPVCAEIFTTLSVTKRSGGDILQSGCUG
Experiment: qHTS Assay for Inhibitors of Mammalian Selenoprotein Thioredoxin Reductase 1 (TrxR1): qHTS; further: nearly all actives have a fitted effect of over 65% in size
Details: recombinant rTrxR1, NADPH fluorescence consumption, selenite substrate; series mostly up to 114 µM
How it was run: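 Rat TrxR1 (90 nM in the dispensed reagent) was pre-reduced with 400 uM NADPH for 5 min at room temperature, then incubated with compound for 15 min. After 400 uM selenite was added, NADPH fluorescence (Ex 340/Em 450 nm) was followed for 8 min.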
On the % scale 0 is the no-effect control and ±100 the full control effect; potency means the concentration at half of the fitted maximal effect; tags describe the fitted curve by direction and shape.

| SMILES | Potency | activity change, negative = inhibition |
| --- | --- | --- |
| CCC(C)(C)NC(=O)C(NS(=O)(=O)c1cccs1)c1ccccc1 (configuration not stated) | inactive |  |
| O=C(CN1CCOCC1)c1ccc2ccccc2c1 | inconclusive: 89.1 µM [inhibitor, single point] |  |
| O=C(O)Cn1cc(/C=C2\C(=O)NC(=O)N(c3ccc(Br)cc3)C2=O)c2ccccc21 | inconclusive: 50.1 µM [inhibitor, partial curve] |  |
| O=c1[nH]c(=O)n(CCC2=CCCCC2)c(O)c1/C=N/Nc1cccc2ccccc12 | inconclusive: 35.5 µM [inhibitor, partial curve, poor fit] |  |
| COc1ccc(C(=O)C2CCCN(Cc3cccc(C)n3)C2)c(OC)c1 (configuration not stated) | inactive |  |
| COc1ccc(Cc2nccc3cc(OC)c(OC)cc23)cc1OC | inconclusive: 0.336 µM [inhibitor, full curve] |  |
| CCCc1[nH][nH]c(=O)c1C(c1ccccc1)C(C#N)C#N (configuration not stated) | inconclusive: 3.55 µM [inhibitor, partial curve, poor fit] |  |
| CC(=NCCN1CCCCC1)c1c(O)n(Cc2ccccc2)c(=O)[nH]c1=O | inconclusive: 28.2 µM [inhibitor, partial curve, poor fit] |  |
| C/C=C1/C[C@@H](C)[C@@](C)(O)C(=O)OCC2=CCN3CC[C@@H](OC1=O)[C@@H]23 | inconclusive: 25.1 µM [inhibitor, single point] |  |
| CCCCn1c(O)c(/C=C2\C=Nc3ccccc32)c(=O)[nH]c1=O | inconclusive: 50.1 µM [inhibitor, partial curve, poor fit] |  |
| CN1C(=O)C(Cc2cccs2)C(=O)N(C)C1=O | inconclusive: 3.16 µM [inhibitor, full curve, poor fit] |  |
| CN(C)c1ccc(/C=C2/C(=O)NC(=O)N(CCc3ccc(F)cc3)C2=O)cc1 | inconclusive: 25.1 µM [inhibitor, partial curve] |  |
| CSc1ncc(/C=C2/C(=O)NC(=O)N(c3ccc(C)cc3)C2=O)cn1 | active: 7.94 µM |  |
| CC(=O)OCC12CC(OC(=O)CC(C)C)C(C)=CC1OC1C(O)C(OC(C)=O)C2(C)C12CO2 (configuration not stated) | inactive |  |
| CC(=O)c1ccc(OC(NC(=O)Cc2ccccc2)C(Cl)(Cl)Cl)cc1 (configuration not stated) | active: 10 µM |  |
| c1ccc2nc(N3CCNCC3)ccc2c1 | inconclusive: 4.23 µM [inhibitor, full curve] and inconclusive: 56.2 µM [inhibitor, partial curve] |  |
| Cc1c(C(=O)c2cccc3ccccc23)c2cccc3c2n1[C@H](CN1CCOCC1)CO3 | inconclusive: 37.7 µM [inhibitor, single point] and inconclusive: 15 µM [inhibitor, single point] |  |
| Cc1nn(Cc2ccccc2)c(C)c1C=C1C(=O)NC(=S)NC1=O | active: 8.91 µM |  |
| CCn1cc(C(=O)c2ccccc2)c2ccccc21 | inconclusive: 89.1 µM [inhibitor, single point] |  |
| COC(=O)C1=C(c2cc3ccccc3s2)C[C@@H]2CC[C@H]1N2C(=O)N1CCC(C)CC1 | inactive |  |
| S=c1[nH]c2cc(Br)cnc2[nH]1 | inconclusive: 4.47 µM [inhibitor, partial curve] |  |

| SMILES | Potency | activity change, negative = inhibition |
| --- | --- | --- |
| CC(CCc1ccccc1)NC(C)C(O)c1ccc(O)cc1 (configuration not stated) | inconclusive: 25.1 µM [inhibitor, partial curve, poor fit] |  |
| CCOC(=O)C1=C(C)c2ccccc2OC1(C(=O)OCC)c1ccccc1 (configuration not stated) | active: 44.7 µM |  |
| C=CCn1c(O)c(/C=C2\C=Nc3ccccc32)c(=O)[nH]c1=O | inconclusive: 89.1 µM [inhibitor, partial curve, poor fit] |  |
| CN1CCN(c2ccc(/C=C3\C(=O)NC(=S)N(c4cccc(Br)c4)C3=O)o2)CC1 | inconclusive: 70.8 µM [inhibitor, partial curve] |  |
| N#C/C(=C/c1ccc(O)c(O)c1)C(N)=S | inconclusive: 20 µM [inhibitor, partial curve] |  |
| CSc1ccc(Cl)c(C(=O)OCC(=O)N2CCN(C(=O)c3ccco3)CC2)c1 | inconclusive: 63.1 µM [inhibitor, partial curve, poor fit] |  |
| O=C(O)C1C2c3ccccc3C(=O)C1(C(=O)O)c1ccccc12 (configuration not stated) |  | inactive: 5.01% [at 11.4 µM] |
| O=C1NC(=O)N(c2ccc(Cl)cc2)C(=O)/C1=C\c1ccc(Sc2nc3ccccc3[nH]2)o1 | active: 12.6 µM |  |
| Clc1ccc(C(Cl)(Cl)Cl)c(Cl)c1 | inconclusive: 22.4 µM [inhibitor, full curve] |  |
| CC(=O)N1CCN(c2ccc(OC[C@H]3CO[C@](Cn4ccnc4)(c4ccc(Cl)cc4Cl)O3)cc2)CC1 | inconclusive: 23.8 µM [inhibitor, partial curve, poor fit] |  |
| Cc1cc(C)cc(N2C(=O)/C(=C\c3ccc(N4CCN(C)CC4)o3)C(=O)NC2=S)c1 | inconclusive: 79.4 µM [inhibitor, single point] |  |
| Cc1cc(NC(=O)CCl)nn1C | inconclusive: 39.8 µM [inhibitor, single point] |  |
| C[C@]12Cc3cn4c(nc3C=C1CCC1C2CC[C@@]2(C)[C@H]1CC[C@@]2(O)C#N)nc1ccccc14 (some centres not stated) | inconclusive: 21.2 µM [inhibitor, partial curve] |  |
| CCOP(=O)(OCC)c1nc(-c2cccc3ccccc23)oc1N1CCCCC1 | inconclusive: 70.8 µM [inhibitor, single point] |  |
| CC1(C)CC2CC(C)(CN2S(=O)(=O)c2cccc(C(=O)OCC(=O)NC(N)=O)c2)C1 (configuration not stated) | inconclusive: 25.1 µM [inhibitor, partial curve, poor fit] |  |
| Cc1c(C(=O)O)cccc1-n1c(C)cc(/C=C2\C(=O)NC(=O)N(c3ccc4c(c3)OCO4)C2=O)c1C | inconclusive: 25.1 µM [inhibitor, partial curve] |  |
| CCN(CC)C(=O)c1ccc(NC(=O)c2cccc(S(=O)(=O)N3CCN(Cc4ccccc4)CC3)c2)cc1 | inconclusive: 89.1 µM [inhibitor, single point] |  |
| O=[N+]([O-])c1cccc(CCl)c1 | inconclusive: 56.2 µM [inhibitor, single point] |  |
| CN1CCN(c2ccc([N+](=O)[O-])c3no[n+]([O-])c23)CC1 | inactive |  |
| CCC(C)C1NC(=O)C(NC(=O)C(CC(C)C)N(C)C(=O)C2CCCN2C(=O)C(C)O)C(C)OC(=O)C(Cc2ccc(OC)cc2)N(C)C(=O)C2CCCN2C(=O)C(CC(C)C)NC(=O)[C@H](C)C(=O)[C@H](C(C)C)OC(=O)CC1O (some centres not stated) |  | inactive: 4.54% [at 11.4 µM] |
| COC(=O)C1=C(c2c(C)noc2C)C[C@@H]2CC[C@H]1N2C(=O)N1CCC(C)CC1 | inactive |  |

| SMILES | Potency | activity change, negative = inhibition |
| --- | --- | --- |
| O=C(N/N=C/c1c(O)n(Cc2ccccc2)c(=O)[nH]c1=O)c1ccccc1O | inconclusive: 44.7 µM [inhibitor, partial curve, poor fit] |  |
| C[C@H]1CCC/C=C/[C@@H]2C[C@H](O)C[C@H]2[C@H](O)/C=C/C(=O)O1 | inconclusive: 56.2 µM [inhibitor, partial curve] |  |
| Cn1c(O)c(C(=O)c2ccccc2F)c(=O)n(C)c1=O | inconclusive: 56.2 µM [inhibitor, partial curve, poor fit] |  |
| CC(=O)CC(c1ccccc1[N+](=O)[O-])c1c(O)c2ccccc2oc1=O (configuration not stated) | inconclusive: 70.8 µM [inhibitor, partial curve, poor fit] |  |
| COc1ccc2[nH]cc(CCN)c2c1 | inactive |  |
| CCC(C)n1c(O)c(/C=N/NC(=O)c2ccncc2)c(=O)[nH]c1=S (configuration not stated) | inconclusive: 79.4 µM [inhibitor, single point] |  |
| CCCC1=Nc2cc(C(=O)NC3CCC(C)CC3)ccc2Sc2ccccc21 (configuration not stated) | inactive |  |
| N#Cc1c(/N=C/c2c(O)n(Cc3ccco3)c(=O)[nH]c2=O)sc2c1CCCC2 | inconclusive: 14.1 µM [inhibitor, partial curve] |  |
| CCN1CCN(c2nc3c(c(=O)[nH]2)CCCC3)CC1 | inactive |  |
| O=C1NC(=O)N(c2cccc(F)c2)C(=O)/C1=C/c1ccc(N2CCOCC2)cc1 | inconclusive: 25.1 µM [inhibitor, full curve] |  |
| CCCCN1C(=O)/C(=C/c2ccc(N(C)C)cc2)C(=O)N(Cc2ccco2)C1=O | inconclusive: 25.1 µM [inhibitor, single point] |  |
| COc1cc(-n2c(=S)[nH]c3ccccc3c2=O)c(Cl)cc1Cl | inconclusive: 0.141 µM [inhibitor, partial curve, poor fit] |  |
| O=C1Nc2ccc(Br)cc2C(c2ccccc2)=NC1O (configuration not stated) | inactive |  |
| O=C(O)Cn1cc(/C=C2\C(=O)NC(=O)N(c3ccc(Cl)cc3)C2=O)c2ccccc21 | inconclusive: 22.4 µM [inhibitor, full curve] |  |
| CN(C)[C@@H]1C(=O)C(C(N)=O)=C(O)[C@@]2(O)C(=O)C3=C(O)c4c(O)ccc(Cl)c4[C@@](C)(O)C3C[C@@H]12 (some centres not stated) | inconclusive: 17.8 µM [inhibitor, full curve] |  |
| CCN(CC)C(=O)N[C@@H]1C[C@@H]2c3cccc4[nH]cc(c34)C[C@H]2N(C)C1 | inconclusive: 14.1 µM [inhibitor, partial curve, poor fit] |  |
| CN1C(=O)NC(=O)/C(=C/c2ccc([N+](=O)[O-])s2)C1=O | inconclusive: 56.2 µM [inhibitor, partial curve] |  |
| CCOc1ccc(CN(CCc2ccc3c(c2)OCO3)Cc2cccc(C)c2)cc1 | inactive |  |
| COc1ccccc1CN1CCN(C(=O)COc2ccc3ccccc3c2)CC1 | inactive |  |
| O=C(N/N=C/c1c(O)n(CCc2ccccc2)c(=O)[nH]c1=O)c1ccncc1 | inconclusive: 56.2 µM [inhibitor, single point] |  |
